Data as given in patent publication US20230190875A1 (ACCELERON PHARMA, published 2023).

How the values were obtained:
Experiment in all cases: SPR (Biacore); Fc fusion captured by anti-Fc antibody, ligand injected
BMP5 = biological target: T1, BMP5 (UniProt P22003 317-454, limits assumed)
T1 sequence (looked up): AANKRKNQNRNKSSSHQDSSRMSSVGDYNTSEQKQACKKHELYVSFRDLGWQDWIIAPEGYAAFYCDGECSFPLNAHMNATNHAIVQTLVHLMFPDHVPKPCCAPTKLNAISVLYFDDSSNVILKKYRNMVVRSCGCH
Procedure: (§1) A Biacore™-based binding assay was used to compare ligand binding selectivity of the single-arm ActRIIA heterodimer Fc fusions described above with that of an ActRIIA homodimer Fc fusion. The single-arm ActRIIA heterodimer Fc fusions and ActRIIA homodimer Fc fusions were independently captured onto the system using an anti-Fc antibody. Ligands were injected and allowed to flow over the captured receptor protein.

activin B = biological target: T2, activin B (UniProt P09529 293-407)
T2 sequence (looked up): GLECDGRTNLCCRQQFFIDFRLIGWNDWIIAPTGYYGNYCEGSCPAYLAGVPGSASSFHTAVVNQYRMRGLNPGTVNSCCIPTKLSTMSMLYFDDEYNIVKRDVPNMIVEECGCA
Procedure: as §1

activin A = biological target: T3, activin A (UniProt P08476 311-426)
T3 sequence (looked up): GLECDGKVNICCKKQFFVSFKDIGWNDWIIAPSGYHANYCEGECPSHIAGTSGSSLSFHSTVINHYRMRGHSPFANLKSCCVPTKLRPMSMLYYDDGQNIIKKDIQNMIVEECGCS
Procedure: as §1

- Kd (BMP5): 1.1 nM
- koff (BMP5): 0.0045 s⁻¹
- kon (BMP5): 4e+06 M⁻¹ s⁻¹
- Kd (activin B): 0.025 nM
- koff (activin B): 0.0002 s⁻¹
- kon (activin B): 7.9e+06 M⁻¹ s⁻¹
- Kd (activin A): 0.045 nM
- koff (activin A): 0.00062 s⁻¹
- kon (activin A): 1.4e+07 M⁻¹ s⁻¹
B1: ActRIIA homodimer Fc fusion (Fc fusion)
chain: not shown
notes: Comparator; also called homodimeric ActRIIA Fc fusion; not shown: linker and Fc domain of the homodimer are not described
